Measurements reported in ChEMBL document CHEMBL4888484, “Replenishing the malaria drug discovery pipeline: Screening and hit evaluation of the MMV Hit Generation Library 1 (HGL1) against asexual blood stage Plasmodium falciparum ,using a nano luciferase reporter read-out” (2022).
In all, about 150,000 compounds went through this assay and about 540 (0.36%) showed an effect of 50% or more. Some of the results follow.

The molecules below were run on Plasmodium falciparum (assay: Primary screen in NF54 nanoGlo assay, in single point, at 2uM, 72h; a lower Z score goes with more inhibition). Conditions: timepoint 72 hour.
Assay type: functional, Erythrocyte
For `COC1(C)CN(c2nc(C)ncc2C)C1`, the “% Inhibition” value was -7% and the Z score was 1.13.
With `CCC(C)[C@H](NC(=O)NCc1ccccc1)C(=O)O` (stereo not given in full) the “% Inhibition” value was -3% and the Z score was 0.4.
For `Cc1ncc(C(=O)N2CCc3ccccc3C2)cn1`, the “% Inhibition” value was -21% and the Z score was 3.17.
With `COC[C@@H]1CCCN1CC(=O)Nc1ccc(Cl)cc1F` the “% Inhibition” value was 4% and the Z score was -0.77.
For `Cc1nn(C)c(C)c1CCC(=O)N1CCC2(CC1)[C@H](O)C[C@@H]2OCCO`, the “% Inhibition” value was -3% and the Z score was 0.38.
In the case of `O=C(NCCN1CCCCC1)Nc1ncn(C2CCCCC2)n1`, the “% Inhibition” value is reported as -7% and the Z score is reported as 0.72.
With `N#Cc1ccnc(N[C@H]2CCCCC23CCCC3)n1` the “% Inhibition” value was 1% and the Z score was -0.12.
In the case of `CC1CN(Cc2ccccc2)CC(C)C1NC(=O)N1CCC(CO)CC1` (stereo not given), the “% Inhibition” value is reported as 6% and the Z score is reported as -1.07.
In the case of `Cc1cc(-c2ccc(S(=O)(=O)NC3CCC(C)CC3)cc2)on1` (stereo not given), the “% Inhibition” value is reported as -9% and the Z score is reported as 1.69.
In the case of `O=C(CN1CCOC1=O)NCc1cc(COc2ccccc2)cs1`, the “% Inhibition” value is reported as -12% and the Z score is reported as 1.63.
For `Cc1ccc(C)c(NC(=O)[C@H](C)N2CCC(NS(=O)(=O)c3cccs3)CC2)c1`, the “% Inhibition” value was -1% and the Z score was 0.1.
In the case of `CN1CCCOc2cccc(c2)[C@@H]2N(C(=O)CCS(C)(=O)=O)CC[C@]23C(=O)N(CC1=O)c1ccccc13`, the “% Inhibition” value is reported as -17% and the Z score is reported as 1.91.
For `CO[C@H]1[C@H](NC(=O)C(C)C)c2ccccc2C12CCN(Cc1ccc3ncccc3c1)CC2`, the “% Inhibition” value was -5% and the Z score was 0.69.
For `Cn1nc(-c2cnccn2)cc1CNC(=O)C(C)(C)C`, the “% Inhibition” value was 11% and the Z score was -1.42.
In the case of `Cc1noc(C)c1CNCc1cccnc1`, the “% Inhibition” value is reported as -7% and the Z score is reported as 0.71.
`Cc1cnc(C(=O)N2CCC3(CC2)C[C@H](CO)N(C(=O)c2ccccc2)C3)cn1` was tested, and the “% Inhibition” value was 4% and the Z score was -0.46.
In the case of `O=C(N[C@@H](Cn1nccn1)c1ccccc1)c1cc(-c2ccccc2)n[nH]1`, the “% Inhibition” value is reported as -4% and the Z score is reported as 0.69.
For `C#CCCC1(CCC(=O)N2Cc3cccc(OC)c3C2)N=N1`, the “% Inhibition” value was -15% and the Z score was 1.87.
In the case of `CCn1nccc1N1CCC[C@H](NC(=O)CCc2c(C)nn(C)c2C)C1=O`, the “% Inhibition” value is reported as -4% and the Z score is reported as 0.57.
In the case of `CO[C@@H](C)CCOC(=O)c1ccc(Cl)cn1`, the “% Inhibition” value is reported as -6% and the Z score is reported as 0.85.
`COc1ccccc1NCC(F)(F)F` was tested, and the “% Inhibition” value was 1% and the Z score was -0.14.
`O=c1c2ccccc2ncn1Cc1noc(-c2ccc(Br)cc2)n1` was tested, and the “% Inhibition” value was -20% and the Z score was 2.44.
`Cc1oncc1NC(=O)Nc1ccc(Cl)c(Cl)c1` was tested, and the “% Inhibition” value was 3% and the Z score was -0.39.
For `Cc1cc2nc(-c3cccs3)cc(C(=O)NC3CC(C)(C)N(C)C(C)(C)C3)c2cc1C`, the “% Inhibition” value was -2% and the Z score was 0.2.
For `Cc1ccc(Cn2cc([C@H](CC(=O)NCc3ccco3)c3cccc(C#N)c3Cl)c3ccccc32)cc1`, the “% Inhibition” value was -1% and the Z score was 0.16.
`O=C(Nc1ccn2nccc2n1)[C@@H]1CCC=CCCC1` was tested, and the “% Inhibition” value was -2% and the Z score was 0.39.
For `CCc1nc2ccc(C(=O)N[C@H]3CCN(Cc4ccsc4)C3)cc2s1`, the “% Inhibition” value was 2% and the Z score was -0.33.
In the case of `CCn1nc(CC2CCN(C)CC2)nc1-c1ccccc1-n1cncn1`, the “% Inhibition” value is reported as -14% and the Z score is reported as 1.28.
In the case of `O=C1CC(c2ccccc2)N(C(=O)[C@@H]2CC[C@H](C(=O)O)C2)CCN1` (stereo not given in full), the “% Inhibition” value is reported as -9% and the Z score is reported as 0.96.
With `CC(C)NC(=O)Cn1cnc2nc(N3CCCCC3)sc2c1=O` the “% Inhibition” value was -1% and the Z score was 0.14.
For `C[C@@]1(c2cccs2)CC(c2cccs2)=Nc2ccccc2N1`, the “% Inhibition” value was -6% and the Z score was 0.83.
In the case of `COC(=O)CN1C(=O)N(c2ccc(C)c(F)c2)c2ncccc2S1(=O)=O`, the “% Inhibition” value is reported as -15% and the Z score is reported as 1.5.
`COCc1nn2c(C(F)(F)F)cc(-c3cccnc3)nc2c1-c1ccc(OC)c(OC)c1` was tested, and the “% Inhibition” value was -8% and the Z score was 0.78.
`Cc1ccc(S(=O)(=O)c2ccc(C(=O)N3CCN(c4cccc(Cl)c4)CC3)s2)cc1` was tested, and the “% Inhibition” value was -20% and the Z score was 1.82.
In the case of `COCC[C@](C)(O)CNc1ccc2nnc(-c3ccsc3)n2n1`, the “% Inhibition” value is reported as -5% and the Z score is reported as 0.76.
With `CCn1nc(C(=O)NC2CCCC2)cc1-c1ccc2c(c1)OCO2` the “% Inhibition” value was 6% and the Z score was -0.81.
In the case of `Nc1ncc(Cl)cc1S(N)(=O)=O`, the “% Inhibition” value is reported as -12% and the Z score is reported as 1.41.
In the case of `CN(C)CCn1cc(Br)cn1`, the “% Inhibition” value is reported as -1% and the Z score is reported as 0.12.
For `O=C(NCc1cn(-c2ccsc2)nn1)NC1CCOCC1`, the “% Inhibition” value was 2% and the Z score was -0.35.
With `Cc1ccc(F)c(-c2cc(NC(=O)[C@H](C)n3cncn3)[nH]n2)c1` the “% Inhibition” value was -14% and the Z score was 1.94.
In the case of `CC1COCC(C)N1C(=O)c1cccnc1OCc1ccccc1F` (stereo not given), the “% Inhibition” value is reported as -2% and the Z score is reported as 0.32.
In the case of `CNC(=O)CCN(C)C(=O)c1c(C)cccc1OC`, the “% Inhibition” value is reported as -14% and the Z score is reported as 2.69.
In the case of `CCOCCNC(=O)[C@@H]1CN(Cc2nc3ccccc3c(=O)[nH]2)CCO1`, the “% Inhibition” value is reported as -11% and the Z score is reported as 1.16.
With `CC(C)[C@H](NC(=O)CCc1ccno1)c1ncnn1C` the “% Inhibition” value was -12% and the Z score was 1.65.
In the case of `Cc1nn(-c2ncc(C(F)(F)F)cc2Cl)c(=O)n1-c1cccc(F)c1`, the “% Inhibition” value is reported as 33% and the Z score is reported as -4.32.
For `CCCC(=O)Nc1cccc(NC(=O)N2CCN(c3ncc[nH]c3=O)CC2)c1`, the “% Inhibition” value was 4% and the Z score was -0.49.
`Cc1sc(N2C(=O)C3CCCCC3C2=O)nc1-c1ccccc1` (stereo not given) was tested, and the “% Inhibition” value was -3% and the Z score was 0.53.
For `N#Cc1cccc(CN[C@@H](CCO)C(F)F)c1`, the “% Inhibition” value was 2% and the Z score was -0.32.
With `CCn1cc(NC(=O)N2CCc3[nH]nc(C(=O)OC)c3C2)c(C)n1` the “% Inhibition” value was -11% and the Z score was 1.65.
`CC(=O)Oc1c(-c2ccc(NC(=O)c3ccc4c(c3)OCO4)cc2)c(C2CC2)nn1-c1cccc(F)c1` was tested, and the “% Inhibition” value was 2% and the Z score was -0.33.
`CN(CCNC(=O)N1CCCCCCC1)C1CC1` was tested, and the “% Inhibition” value was -8% and the Z score was 0.9.
In the case of `Cc1ccc(-c2ccc(=O)n(CCC(=O)NCCN3CCCC[C@@H]3C)n2)cc1`, the “% Inhibition” value is reported as -1% and the Z score is reported as 0.09.
`CCN(CC)c1ccc(-c2ccc3ccccc3n2)cc1` was tested, and the “% Inhibition” value was 3% and the Z score was -0.49.
`CCc1[nH]c([C@H]2CC(=O)N(C3CCCC3)C2)nc1-c1ccc(Cl)cc1` was tested, and the “% Inhibition” value was -2% and the Z score was 0.37.
In the case of `C[C@@H](CC(=O)N1CCC(n2ccnn2)CC1)c1ccc(F)cc1F`, the “% Inhibition” value is reported as -11% and the Z score is reported as 1.44.
With `O=C(NCc1ccncc1)c1csc(-c2ccc(OCc3cccc(F)c3)cc2Cl)n1` the “% Inhibition” value was 7% and the Z score was -0.94.
In the case of `CCc1nnc(N2CCC[C@@]3(CCC(=O)N(CCN(C)C)C3)C2)s1`, the “% Inhibition” value is reported as -10% and the Z score is reported as 1.3.
For `COc1ccc(OC)c(CN(Cc2nc(-c3ccc(Cl)cc3)no2)C2CC2)c1`, the “% Inhibition” value was -6% and the Z score was 0.81.
For `Cc1ccsc1CCC(=O)N1Cc2cccnc2C1`, the “% Inhibition” value was -16% and the Z score was 1.86.
For `Cc1cccc(C(=O)N2CCc3[nH]cnc3C2)c1`, the “% Inhibition” value was -19% and the Z score was 2.24.
For `CC(C)[C@H](NC(=O)C(F)(F)F)C(=O)Nc1cnn(C(C)C2CC2)c1` (stereo not given in full), the “% Inhibition” value was -4% and the Z score was 0.46.
In the case of `Cn1nc(C(F)(F)F)cc1S(=O)(=O)NCCc1noc2ccccc12`, the “% Inhibition” value is reported as 2% and the Z score is reported as -0.28.
`c1ccc(-c2nccn2-c2nc(-n3ccnc3-c3ccccc3)nc(-n3ccnc3-c3ccccc3)n2)cc1` was tested, and the “% Inhibition” value was -38% and the Z score was 4.43.
For `COCCS(=O)(=O)Nc1cccc2c1CN(CC(C)C)C2`, the “% Inhibition” value was -7% and the Z score was 0.97.
With `Cc1ccc(F)cc1CNCc1ccoc1` the “% Inhibition” value was -3% and the Z score was 0.34.
For `COC(C)(C)c1nc(-c2ccncc2)no1`, the “% Inhibition” value was 3% and the Z score was -0.43.
With `O=c1[nH]nc2n1CCN(S(=O)(=O)c1cc(F)ccc1F)C2` the “% Inhibition” value was -12% and the Z score was 2.12.
For `CC(=O)Nc1ncnc2c1c(-c1ccc(Cl)cc1)nn2C(C)(C)C`, the “% Inhibition” value was -11% and the Z score was 1.38.
With `CS(=O)(=O)N[C@H]1CCN(C(=O)c2cc(N3CCCC3=O)ccc2F)C1` the “% Inhibition” value was 2% and the Z score was -0.27.
For `CC(C)CCNC(=O)c1c(O)n2c3c(cccc3c1=O)CCC2`, the “% Inhibition” value was -18% and the Z score was 1.58.
For `NC(=O)N1CCN2C(=O)N(CCOc3cccc(F)c3)C(=O)[C@@H]2C1`, the “% Inhibition” value was -1% and the Z score was 0.1.
With `CCOc1cncc(CNc2nnc(-c3cn[nH]c3C)s2)c1` the “% Inhibition” value was -4% and the Z score was 0.52.
For `COc1nn(C)cc1C(=O)N(CCn1ccc(C(F)(F)F)n1)C1CCCC1`, the “% Inhibition” value was -11% and the Z score was 2.12.
With `N[C@H]1CCCC[C@@H]1NC(=O)N[C@H]1C[C@H](c2ccc(Cl)cc2)C1` the “% Inhibition” value was 14% and the Z score was -1.7.
For `CCCc1cnc(N2CCn3nc(CNC(=O)C4CCC4)cc3C2)nc1`, the “% Inhibition” value was -9% and the Z score was 0.88.
In the case of `CCN(CC)CC(=O)Nc1cccc(F)c1`, the “% Inhibition” value is reported as -2% and the Z score is reported as 0.3.
With `CC(CCC1CC1)NC(=O)NCC1CCC(O)C1` (stereo not given) the “% Inhibition” value was -8% and the Z score was 1.19.
For `O=C(CCOCC(F)(F)C(F)F)N[C@H]1CCCN(c2ccccc2F)C1=O`, the “% Inhibition” value was -13% and the Z score was 2.28.
For `COc1ccc(CN(C)[C@H]2CCN(CC(F)(F)F)C2=O)cc1F`, the “% Inhibition” value was 0% and the Z score was -0.04.
In the case of `CC(C)(C)c1cc2c(c(C(C)(C)C)c1)OC1CCCCC1(N1CCCC1)O2` (stereo not given), the “% Inhibition” value is reported as -7% and the Z score is reported as 0.97.
For `Cc1ccc2[nH]c(C(=O)N3CCC[C@H]3c3ccc(CN(C)C)cc3)nc2c1`, the “% Inhibition” value was 7% and the Z score was -1.35.
`Cc1noc([C@H]2CN(C(=O)c3cccn3C)CC23CCOCC3)n1` was tested, and the “% Inhibition” value was 2% and the Z score was -0.38.
`Cc1ccsc1S(=O)(=O)NC(=O)[C@H]1CCN(C)C(=O)C1` was tested, and the “% Inhibition” value was -9% and the Z score was 0.82.
For `O=C(c1ccccc1)N1CCN(Cc2cccnc2)[C@@H]2CS(=O)(=O)C[C@@H]21`, the “% Inhibition” value was -5% and the Z score was 0.54.
In the case of `COc1ccc(-c2nn(-c3ccccc3F)cc2CN(C)Cc2nnc(C)o2)cc1`, the “% Inhibition” value is reported as -6% and the Z score is reported as 1.12.
